“And” between values parts separate entries of the source, which are not always exact repeats. Equal entries are not always repeated. About 40 (0.2%) of roughly 16,000 compounds were called active. Another 1% or so got no clear call; they are omitted. The call rests on the fitted dose curve; in most records, active means well fitted activation curve with a large enough effect; inconclusive means small, poorly fitted or top-dose-only effect, or another doubt; inactive means no such curve, though single readings can be large or run the other way. The list shows a part of the results. Non-standard residues stand in square brackets, D forms with d. Residues, ends and D or L forms follow the SMILES beside them. Orn = NCCC[C@H](N)C(=O)O
On the % scale 0 is the no-effect control and ±100 the full control effect.

The target of the assay is Rap guanine nucleotide exchange factor 4 (Homo sapiens) (UniProt Q8WZA2). The assay is described as follows: Validation qHTS for agonist of cAMP-regulated guanine nucleotide exchange factor 4 (EPAC2).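 Further: exchange makes BODIPY-GDP fluorescence drop when released from Rap1B; series mostly up to about 150 µM.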 Conditions: EPAC2 Rap1B BODIPY-GDP exchange, fluorescence; activation: active compounds read high. The essentials: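 Fluorescent exchange assay: 100 nM EPAC2 with 250 nM RAP1B-BODIPY-GDP and 50 uM GDP; compound added, 5 min at room temperature, then read (ex 480/em 540 nm) every 5 min for 30 min. Normalized to 6.5 mM cAMP agonist control.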
UniProt Q8WZA2, sequence (Q8WZA2 whole entry, looked up): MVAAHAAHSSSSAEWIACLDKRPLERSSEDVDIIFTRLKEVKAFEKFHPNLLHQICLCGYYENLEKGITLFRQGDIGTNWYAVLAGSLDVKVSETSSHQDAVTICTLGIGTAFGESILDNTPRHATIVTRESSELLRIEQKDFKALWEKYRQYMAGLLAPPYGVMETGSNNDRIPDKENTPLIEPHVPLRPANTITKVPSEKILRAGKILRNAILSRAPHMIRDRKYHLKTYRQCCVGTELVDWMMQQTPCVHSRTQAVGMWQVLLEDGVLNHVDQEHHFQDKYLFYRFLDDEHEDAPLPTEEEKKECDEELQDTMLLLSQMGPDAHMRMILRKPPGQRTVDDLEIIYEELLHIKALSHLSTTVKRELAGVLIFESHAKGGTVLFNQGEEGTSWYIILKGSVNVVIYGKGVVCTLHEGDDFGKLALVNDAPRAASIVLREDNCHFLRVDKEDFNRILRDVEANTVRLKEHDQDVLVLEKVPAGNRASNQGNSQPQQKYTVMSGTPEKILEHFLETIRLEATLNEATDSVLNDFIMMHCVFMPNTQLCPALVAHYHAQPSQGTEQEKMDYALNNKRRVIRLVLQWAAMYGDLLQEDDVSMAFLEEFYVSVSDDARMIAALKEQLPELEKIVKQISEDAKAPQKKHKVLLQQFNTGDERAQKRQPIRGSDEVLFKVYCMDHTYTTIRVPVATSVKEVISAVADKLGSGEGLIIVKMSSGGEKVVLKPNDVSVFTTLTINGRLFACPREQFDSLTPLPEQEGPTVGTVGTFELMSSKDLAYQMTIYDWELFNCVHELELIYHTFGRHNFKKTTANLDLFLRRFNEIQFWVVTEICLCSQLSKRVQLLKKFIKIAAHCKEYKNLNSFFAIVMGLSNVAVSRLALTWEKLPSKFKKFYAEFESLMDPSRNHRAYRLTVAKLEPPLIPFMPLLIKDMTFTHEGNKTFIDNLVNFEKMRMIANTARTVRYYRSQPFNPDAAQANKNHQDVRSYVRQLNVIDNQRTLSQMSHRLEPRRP
With `COc1ccccc1C(=O)O[C@H]1[C@H](Cc2ccccc2)NS(=O)(=O)[C@H]2C[C@@H]3C=C[C@]12O3`, the activation is inactive: -37.5%.
`C=C1Cc2c(Cl)cc3[nH]c4c5c3c2[C@@]2(O)[C@@H]1C[C@@H]2C(C)(C)O[C@H]5[C@@H]1CC[C@@]2(O)[C@@]35O[C@@H]3[C@@H](O)[C@@H](C(=O)O)O[C@H]5CC[C@]2(C)[C@@]41C`: the activation was inactive: -9.97%.
For `CN(C)c1ccc(/C=C/c2ccc3cc(N(C)C)ccc3n2)cc1` the value was inactive: 0.661%.
With `CCOC(=O)COc1ccc2c(C)c(CCN(CC)CC)c(=O)oc2c1Cl`, the activation is inactive: 10%.
With `CC1=C(/C=C/C(C)=C/C=C/C(C)=C/C(=O)O)C(C)(C)CCC1O` (stereo not given), the activation is inactive: -10.1%.
Consider `O=S(=O)(c1ccccc1)N1CCC2(CCN(Cc3ccncc3)CC2)CC1`, for which the activation was inactive: -3.04%.
For `Cc1ncc(-c2ccc(F)cc2)c(C2CCCN(Cc3cccc(O)c3)C2)n1` (stereo not given) the value was inactive: -4.98%; for `COc1ccc(C2CC(=O)c3ccc(OC)cc3O2)cc1` (stereo not given), inactive: -7.56%; for `OC[C@H]1O[C@@H](OCCc2ccc(O)cc2)[C@H](O)[C@@H](O)[C@@H]1O`, inactive: -19.7%.
Take `O=C(/C=C/c1ccc(O)c(O)c1)NC(=O)c1ccccc1O`: the activation was inactive: -13.9%.
As to `C[C@@H](O[C@H]1OCCN(Cc2n[nH]c(=O)[nH]2)[C@@H]1c1ccc(F)cc1)c1cc(C(F)(F)F)cc(C(F)(F)F)c1`, the activation was inactive: -57.3%.
With `Cc1c(O)cc(O)c2c(=O)c(-c3ccc(O)cc3)coc12`, the activation was inactive: 2.29%.
With `CNCCC=C1c2ccccc2CCc2ccccc21`, the activation was inactive: 0.43% and inactive: -4.08% and inactive: -32.9%.
Take `COc1cc(CNC(=O)CCCC/C=C\C(C)C)ccc1O`: the activation was inactive: -23.3% and inactive: -40.2%.
With `CCN1CCCC1CNC(=O)c1cnn(-c2nccc(-c3ccco3)n2)c1C1CC1` (stereo not given), the activation is inactive: -1.8%.
For `CN(Cc1ccco1)c1ncncc1-c1cccnc1` the value was inactive: -1.15%; for `CCOC(=O)C(CCc1ccccc1)NC(C)C(=O)N1CCCC1C(=O)O` (stereo not given), inactive: 0.999%.
As to `CC(C)C[C@@H]1NC(=O)[C@H](CCCN)NC(=O)[C@H](C(C)C)NC(=O)[C@@H]2CCCN2C(=O)[C@@H](Cc2ccccc2)NC(=O)[C@H](CC(C)C)NC(=O)[C@H](CCCN)NC(=O)[C@H](C(C)C)NC(=O)[C@@H]2CCCN2C(=O)[C@@H](Cc2ccccc2)NC1=O` (cyclo(V[Orn]L[dF]PV[Orn]L[dF]P)), the activation is inactive: -44.7%.
`COc1ccc(OC)c(-c2ccnc(-n3ncc(C(=O)N4CCN(CCO)CC4)c3C3CC3)n2)c1`: the activation is inactive: -6.43%.
For the compound `COc1ccccc1CCn1c(=O)c(-c2ccccc2)nc2cncnc21`, the activation is inactive: -0.54%.
For `COC(=O)CNC(=O)c1cnn(-c2ncc3c(n2)-c2ccccc2CCC3)c1C1CC1` the value was inactive: -9.57%.
As for `O=C(c1ccncc1)N1CCC[C@@]2(CCN(Cc3cc(C(F)(F)F)cc(C(F)(F)F)c3)C2)C1`, the activation was inactive: -33.8%.
As to `CCc1cc(C(N)=S)ccn1`, the activation is inactive: -4.82% and inactive: -4.81%.
Consider `Cc1noc(C)c1-c1nccc(N2CCOCC2)n1`, for which the activation was inactive: -5.32%.
For the compound `Cc1cc(=S)[nH]c2ccccc12`, the activation is inactive: -17.1%.
`CN(C)C(=O)c1ccc(-c2cncnc2NC2CCNCC2)cc1`: the activation is inactive: -5.98%.
For `O=C(CCc1c[nH]c2ccccc12)N1CCC(n2c(C3CCCO3)nc3cc(C(F)(F)F)ccc32)CC1` (stereo not given) the value was inactive: -21.2%.
For the compound `O=C(c1csnn1)N1CCC2(CC1)CCN(c1cccc(-c3ccccc3)c1)CC2`, the activation was inactive: -1.39%.
As for `Cc1ccc(S(=O)(=O)NC(=O)NC2CCCCC2)cc1`, the activation is inactive: 5.86%.
With `COc1cc2nc(N3CCN(C(=O)OCc4ccccc4)C(C(=O)NC(C)(C)C)C3)nc(N)c2cc1OC` (stereo not given), the activation is inactive: -38%.
On to `Cc1noc(C)c1-c1cc(N2CCN(C)CC2)ncn1`, for which the activation was inactive: 4.38%.
Regarding `CC(=O)Nc1c(I)c(NC(C)=O)c(I)c(C(=O)O)c1I`, the activation is inactive: -9.56%.
For the compound `CCC[C@H]1COCCS(=O)(=O)N1Cc1cccc(F)c1`, the activation was inactive: -21.4%.
With `O=C(Oc1ccccc1)c1cccc(C(=O)Oc2ccccc2)c1`, the activation is inactive: -28.3%.
Consider `Cc1ccc2c(/C=C/c3c[nH]c4ccccc34)ccnc2c1C`, for which the activation was inactive: 1.44%.
For `CC(=O)Nc1ccc(S(=O)(=O)Nc2ccc([N+](=O)[O-])cc2)cc1` the value was inactive: -6.33%; for `CN(C)C(=O)c1ccc(-c2ccc3ncnc(NCc4ccccc4)c3c2)cc1`, inactive: 3.42%.
As for `CN(Cc1ccco1)c1ncnc2ccc(-c3cccc(NS(C)(=O)=O)c3)cc12`, the activation was inactive: 6.4%.
The result for `Cn1cc(C2=C(c3ccc(Cl)cc3Cl)C(=O)NC2=O)c2ccccc21` reads inactive: -7.98% and inactive: -22.5%; that for `CC1OC(OCC2OC(Oc3c(-c4ccc(O)c(O)c4)oc4cc(O)cc(O)c4c3=O)C(O)C(O)C2O)[C@@H](O)C(O)C1O` (stereo not given in full), inactive: -11.2%; that for `CN(C)CC(C)(C)CNC(=O)c1cnn(-c2nccc(-c3ccc4c(c3)OCO4)n2)c1-c1ccco1`, inactive: -3.42%.
For `O=c1c(CCc2ccccc2)nc2cnc(Nc3ccccc3)nc2n1C[C@H]1CCCO1` the value was inactive: 5.69%; for `Cn1c(SCC2CCCO2)nnc1C1CCN(Cc2ccccc2O)CC1` (stereo not given), inactive: -12.7%; for `COc1ccc(-c2c(-c3cc(OC)c(OC)c(OC)c3)noc2C)cn1`, inactive: -27.6%.
With `CC(=O)N1CCC2(CCN(Cc3cc(C(F)(F)F)cc(C(F)(F)F)c3)CC2)CC1`, the activation is inactive: -13.4%.
For the compound `CC(C)OC(=O)Nc1ccc2nc(-c3cscn3)[nH]c2c1`, the activation is inactive: -33.3%.
As for `COc1cc(OC)c(/C=C2/C(=O)Nc3ccccc32)c(OC)c1`, the activation was inactive: -24.1%.
Take `COc1cccc2c(=O)c3ccoc3n(C)c12`: the activation is inactive: -8.1%.
As to `CN1CCCC1CCO[C@@](C)(c1ccccc1)c1ccc(Cl)cc1` (stereo not given in full), the activation is inactive: 2.9%.
Turning to `CC[C@H](C)[C@H]1O[C@]2(CC[C@@H]1C)C[C@@H]1C[C@@H](C/C=C(\C)[C@@H](O[C@H]3C[C@H](OC)[C@@H](O[C@H]4C[C@H](OC)[C@@H](O)[C@H](C)O4)[C@H](C)O3)[C@@H](C)/C=C/C=C3\CO[C@@H]4[C@H](O)C(C)=C[C@@H](C(=O)O1)[C@]34O)O2`, the activation was inactive: -35.3%.

The values above are taken from PubChem BioAssay AID1645887 (National Center for Advancing Translational Sciences (NCATS), 2021).
